This list was built around the results that the source calls inconclusive (neither active nor inactive); the mix of calls is not that of the screen. Potencies of inconclusive entries are doubtful fits and often do not repeat. Calls of active or inactive are those of the source. The call rests on the fitted dose curve; in most records, active means well fitted inhibition curve with a large enough effect; inconclusive means small, poorly fitted or top-dose-only effect, or effect the other way, or another doubt; inactive means no such curve, though single readings can be large or run the other way.
Test: Confirmation Concentration-Response Assay for lipid storage modulators; further: nearly all actives have a fitted effect of over 80% in size
Conditions: Drosophila S3 cells, lipid droplet BODIPY/CellTracker ratio, 18-24 h; series mostly up to 46.1 µM
Method in brief: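 Cells at 5,000/well received compound as a titration plus oleic acid (added as 400 uM solution) and were incubated 18–24 h at 24 °C. BODIPY 493/503 lipid signal and CellTracker Red cell count were read by 488-nm laser-scanning cytometry. Activity was normalised to 20 uM Triacsin C.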
Potency means the concentration at half of the fitted maximal effect; tags describe the fitted curve by direction and shape.

**Q.** Which Potency does the source give for `CCCOc1ccccc1NC(=O)c1ccc(N)cc1` here?
**A.** inconclusive: 5.6 µM [activator, partial curve]

**Q.** Which Potency does the source give for `Cc1cccc(C)c1OCc1nnc(SCC(=O)Nc2cccc(C(=O)N3CCOCC3)c2)n1C` here?
**A.** inconclusive: 17.7 µM [activator, partial curve, poor fit]

**Q.** Which Potency does the source give for `CNC(=O)c1sc2nc(-c3ccc(OC)cc3)cn2c1C` here?
**A.** active: 15.8 µM

**Q.** With `Cc1sc(NC(=O)c2ccco2)c(C(c2cccnc2)N2CCC(C)CC2)c1C` (stereo unspecified) as the compound, how does the Potency read?
**A.** inconclusive: 3.53 µM [activator, partial curve]

**Q.** With `COc1ccc(Cl)cc1NC(=O)CC(C)c1ccccc1` (stereo unspecified) as the compound, how does the Potency read?
**A.** inconclusive: 14.1 µM [activator, partial curve, poor fit]

**Q.** Which Potency does the source give for `CCOc1ccc2nc(NC(=O)CSc3nc(SC)ns3)sc2c1` here?
**A.** active: 4.45 µM

**Q.** Which Potency does the source give for `CC(C)(C)C(=O)c1cnc(Nc2ccccc2)s1` here?
**A.** inconclusive: 15.8 µM [activator, partial curve]

**Q.** Which Potency does the source give for `COc1ccc(CCNC(=O)CSc2n[nH]c(C)c2[N+](=O)[O-])cc1OC` here?
**A.** inconclusive: 8.88 µM [activator, partial curve, poor fit]

**Q.** With `COc1cc2c(cc1NC(=O)c1ccc(C(C)(C)C)cc1)CCCC2` as the compound, how does the Potency read?
**A.** inconclusive: 1.77 µM [activator, full curve, poor fit]

**Q.** With `CCOC(=O)c1c(-c2ccc(C)s2)csc1NC(=O)c1cccs1` as the compound, how does the Potency read?
**A.** inconclusive: 0.791 µM [activator, full curve]

**Q.** With `COc1ccc(S(=O)(=O)N(CC(=O)NCC2CCCO2)Cc2ccccc2)cc1C` (stereo unspecified) as the compound, how does the Potency read?
**A.** inconclusive: 4.45 µM [activator, full curve]

From PubChem BioAssay AID1569 (National Center for Advancing Translational Sciences (NCATS), 2009)
